Assay results published in article PMC11638888 (2024).
No constants are given. Whether binding was seen depends on the method and setting. Some entries that bind do so weakly or less than the wild type.

Sequences of proteins named here, by UniProt entry; tags and fusion partners are left off. A change or cut given only in a name is not applied to a line headed by its entry. Residues count along the entry.
UniProt P84091: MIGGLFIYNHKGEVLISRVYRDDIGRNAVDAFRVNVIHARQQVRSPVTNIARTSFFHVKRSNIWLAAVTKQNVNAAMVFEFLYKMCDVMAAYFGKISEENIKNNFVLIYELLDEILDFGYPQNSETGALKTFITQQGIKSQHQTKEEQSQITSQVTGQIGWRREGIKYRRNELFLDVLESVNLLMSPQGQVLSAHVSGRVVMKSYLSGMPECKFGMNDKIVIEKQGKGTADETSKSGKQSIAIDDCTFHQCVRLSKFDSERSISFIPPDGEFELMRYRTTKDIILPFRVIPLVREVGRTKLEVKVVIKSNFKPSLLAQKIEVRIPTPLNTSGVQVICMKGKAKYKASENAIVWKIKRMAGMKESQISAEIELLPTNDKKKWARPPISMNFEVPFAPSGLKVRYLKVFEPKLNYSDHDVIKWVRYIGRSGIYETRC
EGFP-MYO10-μ2-MID (NanoSPD bait of the reciprocal experiments): residues 124-435 of P84091

Columns and labels:
[1] = target: T1, cytosolic C-terminal region of mouse SLC26A4 (SLC26A4-Ct, residues 512 to 780), yeast two-hybrid bait (mouse) (UniProt Q9R155); test: two-hybrid; yeast two-hybrid screen (ULTImate Y2H, Hybrigenics Services); SLC26A4-Ct as bait against a prey library of cDNA from 8- to 10-week-old mouse kidneys
T1 sequence: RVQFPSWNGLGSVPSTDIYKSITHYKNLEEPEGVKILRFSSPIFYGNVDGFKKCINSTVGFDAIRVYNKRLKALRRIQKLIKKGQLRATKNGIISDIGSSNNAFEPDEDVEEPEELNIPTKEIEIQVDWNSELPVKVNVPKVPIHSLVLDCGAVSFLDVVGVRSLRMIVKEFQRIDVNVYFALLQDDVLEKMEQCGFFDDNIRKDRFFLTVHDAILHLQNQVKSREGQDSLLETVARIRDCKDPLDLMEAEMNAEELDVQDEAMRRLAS

[2] = target: T2, SLC26A4-Ct Y536A, yeast two-hybrid bait (mouse) (UniProt Q9R155); test: two-hybrid; pairwise yeast two-hybrid assays; bait and prey coexpressed in yeast, growth on selective medium without histidine (-His) against nonselective control; N = 3
T2 sequence: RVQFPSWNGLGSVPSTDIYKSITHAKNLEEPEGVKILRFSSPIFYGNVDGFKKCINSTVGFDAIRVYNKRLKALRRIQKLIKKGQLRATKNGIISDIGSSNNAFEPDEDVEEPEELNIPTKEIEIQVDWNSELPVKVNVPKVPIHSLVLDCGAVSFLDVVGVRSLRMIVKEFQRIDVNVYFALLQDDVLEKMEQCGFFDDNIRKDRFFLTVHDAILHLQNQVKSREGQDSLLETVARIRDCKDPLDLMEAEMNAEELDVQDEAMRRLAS

[3] = target: T3, SLC26A4-Ct L539A, yeast two-hybrid bait (mouse) (UniProt Q9R155); test: as above
T3 sequence: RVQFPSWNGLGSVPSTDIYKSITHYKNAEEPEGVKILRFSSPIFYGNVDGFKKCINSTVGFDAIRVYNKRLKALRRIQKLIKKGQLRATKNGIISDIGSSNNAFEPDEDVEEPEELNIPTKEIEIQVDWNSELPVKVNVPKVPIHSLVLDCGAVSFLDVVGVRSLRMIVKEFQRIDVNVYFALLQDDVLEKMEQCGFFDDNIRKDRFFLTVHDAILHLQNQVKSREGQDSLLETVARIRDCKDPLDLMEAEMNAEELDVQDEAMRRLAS

[4] = target: T4, SLC26A4-Ct Y530A, yeast two-hybrid bait (mouse) (UniProt Q9R155); test: as above
T4 sequence: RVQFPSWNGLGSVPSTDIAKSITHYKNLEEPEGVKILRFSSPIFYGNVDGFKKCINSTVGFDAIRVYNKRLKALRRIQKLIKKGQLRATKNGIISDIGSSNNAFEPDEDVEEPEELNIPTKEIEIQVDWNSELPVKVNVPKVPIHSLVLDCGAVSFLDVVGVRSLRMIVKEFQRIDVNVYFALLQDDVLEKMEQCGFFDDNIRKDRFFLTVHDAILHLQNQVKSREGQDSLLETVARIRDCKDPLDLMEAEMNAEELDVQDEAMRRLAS

[5] = target: T5, SLC26A4-Ct Y556A, yeast two-hybrid bait (mouse) (UniProt Q9R155); test: as above
T5 sequence: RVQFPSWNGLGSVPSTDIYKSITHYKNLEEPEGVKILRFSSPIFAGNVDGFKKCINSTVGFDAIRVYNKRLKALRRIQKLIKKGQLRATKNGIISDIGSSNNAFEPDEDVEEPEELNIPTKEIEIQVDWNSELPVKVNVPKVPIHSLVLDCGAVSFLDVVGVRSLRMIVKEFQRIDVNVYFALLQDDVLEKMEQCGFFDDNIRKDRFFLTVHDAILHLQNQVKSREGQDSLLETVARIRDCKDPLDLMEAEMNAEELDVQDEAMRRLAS

[6] = target: T6, SLC26A4-Ct Y691A, yeast two-hybrid bait (mouse) (UniProt Q9R155); test: as above
T6 sequence: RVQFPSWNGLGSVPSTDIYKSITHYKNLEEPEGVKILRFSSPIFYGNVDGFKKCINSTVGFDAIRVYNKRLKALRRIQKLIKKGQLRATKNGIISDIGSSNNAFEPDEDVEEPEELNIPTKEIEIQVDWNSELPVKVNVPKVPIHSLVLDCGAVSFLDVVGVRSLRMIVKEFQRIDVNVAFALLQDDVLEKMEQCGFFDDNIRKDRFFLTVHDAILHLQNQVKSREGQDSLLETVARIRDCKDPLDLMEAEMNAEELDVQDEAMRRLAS

[7] = target: T7, SLC26A4-Ct mutated at all four tyrosine-based motifs (Y530A, Y536A, Y556A, and Y691A), yeast two-hybrid bait (mouse) (UniProt Q9R155); test: as above
T7 sequence: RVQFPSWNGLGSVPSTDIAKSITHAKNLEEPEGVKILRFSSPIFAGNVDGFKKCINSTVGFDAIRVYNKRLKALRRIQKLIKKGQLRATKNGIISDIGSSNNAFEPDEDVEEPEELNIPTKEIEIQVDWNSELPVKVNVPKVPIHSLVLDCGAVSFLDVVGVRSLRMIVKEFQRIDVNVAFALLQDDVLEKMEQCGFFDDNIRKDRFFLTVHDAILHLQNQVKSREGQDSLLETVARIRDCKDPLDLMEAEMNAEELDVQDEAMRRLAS

[8] = target: T1, cytosolic C-terminal region of mouse SLC26A4 (SLC26A4-Ct, residues 512 to 780), yeast two-hybrid bait (mouse); test: as above
[9] = target: T8, mCherry-MYO10-SLC26A4-Ct (NanoSPD bait) (mouse) (UniProt Q9R155); test: NanoSPD (nanoscale pulldown); HeLa cells coexpressing mCherry-MYO10-fused SLC26A4-Ct bait and EGFP-fused μ2 prey; prey fluorescence at filopodia tips quantified
T8 sequence: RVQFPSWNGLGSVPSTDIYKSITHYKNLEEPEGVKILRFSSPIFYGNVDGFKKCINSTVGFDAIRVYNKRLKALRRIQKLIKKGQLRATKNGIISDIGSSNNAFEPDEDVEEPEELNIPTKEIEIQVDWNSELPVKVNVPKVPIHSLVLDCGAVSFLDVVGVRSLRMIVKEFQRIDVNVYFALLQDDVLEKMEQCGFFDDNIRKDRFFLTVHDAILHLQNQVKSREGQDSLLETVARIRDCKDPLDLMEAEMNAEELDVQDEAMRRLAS

[10] = target: T9, mCh-MYO10-SLC26A4-Ct Y536A (NanoSPD bait) (mouse) (UniProt Q9R155); test: as above
T9 sequence: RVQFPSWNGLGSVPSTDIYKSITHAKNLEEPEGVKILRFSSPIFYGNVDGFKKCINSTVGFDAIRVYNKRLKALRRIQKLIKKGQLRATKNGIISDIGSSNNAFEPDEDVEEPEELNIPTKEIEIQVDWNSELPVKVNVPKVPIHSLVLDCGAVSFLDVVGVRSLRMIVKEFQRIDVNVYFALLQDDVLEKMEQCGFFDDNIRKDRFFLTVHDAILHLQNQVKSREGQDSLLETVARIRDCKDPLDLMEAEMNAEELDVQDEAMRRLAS

[11] = target: T10, mCh-MYO10-SLC26A4-Ct with Y536 intact and the three other tyrosine residues mutated to alanine (Y530A, Y556A, Y691A; NanoSPD bait) (mouse) (UniProt Q9R155); test: as above
T10 sequence: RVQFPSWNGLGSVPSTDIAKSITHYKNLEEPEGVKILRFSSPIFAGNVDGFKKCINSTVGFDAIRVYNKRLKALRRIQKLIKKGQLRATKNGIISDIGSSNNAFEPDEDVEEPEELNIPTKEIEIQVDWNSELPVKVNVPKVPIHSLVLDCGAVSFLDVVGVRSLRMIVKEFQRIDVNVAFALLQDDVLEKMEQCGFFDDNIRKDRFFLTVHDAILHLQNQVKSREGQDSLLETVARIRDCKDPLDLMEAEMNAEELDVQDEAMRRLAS

[12] = target: T11, mCh-MYO10-SLC26A4-Ct L539A (NanoSPD bait) (mouse) (UniProt Q9R155); test: as above
T11 sequence: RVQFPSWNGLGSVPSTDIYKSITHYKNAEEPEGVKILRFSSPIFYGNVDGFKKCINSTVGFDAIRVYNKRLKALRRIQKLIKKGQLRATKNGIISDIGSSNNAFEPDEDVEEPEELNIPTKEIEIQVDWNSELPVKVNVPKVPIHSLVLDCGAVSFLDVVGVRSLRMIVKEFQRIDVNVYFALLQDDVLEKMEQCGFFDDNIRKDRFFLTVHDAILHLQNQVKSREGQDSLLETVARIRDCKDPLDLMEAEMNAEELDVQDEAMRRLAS

[13] = target: T12, mCh-MYO10-SLC26A4-Ct with all four Y530A, Y536A, Y556A, and Y691A substitutions (NanoSPD bait) (mouse) (UniProt Q9R155); test: as above
T12 sequence: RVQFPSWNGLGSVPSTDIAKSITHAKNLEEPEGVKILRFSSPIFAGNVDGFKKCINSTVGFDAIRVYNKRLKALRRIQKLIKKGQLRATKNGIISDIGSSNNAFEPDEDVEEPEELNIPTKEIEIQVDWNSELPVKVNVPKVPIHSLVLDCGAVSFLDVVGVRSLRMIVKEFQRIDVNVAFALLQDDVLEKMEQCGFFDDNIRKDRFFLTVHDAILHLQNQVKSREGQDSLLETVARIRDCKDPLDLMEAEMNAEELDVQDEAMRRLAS

[14] = target: EGFP-MYO10-μ2-MID (NanoSPD bait of the reciprocal experiments) (mouse) (UniProt P84091); test: NanoSPD (nanoscale pulldown); reciprocal format: HeLa cells coexpressing EGFP-MYO10-fused μ2 bait and mCherry-SLC26A4-Ct prey; prey fluorescence at filopodia tips quantified
[15] = target: EGFP-MYO10-μ2-FL (NanoSPD bait of the reciprocal experiments) (mouse) (UniProt P84091); test: as above

Molecule: μ2 subunit of the AP-2 complex, minimum interacting domain (μ2-MID, residues 124 to 435), yeast two-hybrid prey (from UniProt P84091 124-435) (domain or fragment)
- binding [1]: binds
- binding [2]: no binding
- binding [3]: no binding
- binding [4]: binds
- binding [5]: binds
- binding [6]: binds
- binding [7]: no binding
- binding [8]: binds

Molecule: μ2 C-terminal domain fused to EGFP (μ2-Ct-EGFP, residues 170 to 435; NanoSPD prey) (from UniProt P84091 170-435) (domain or fragment)
- binding [9]: binds

Molecule: μ2-MID F174S/D176A, yeast two-hybrid prey (from UniProt P84091 124-435) (domain or fragment)
- binding [8]: no binding

Molecule: μ2-MID D176A/W421S, yeast two-hybrid prey (from UniProt P84091 124-435) (domain or fragment)
- binding [8]: no binding

Molecule: μ2-MID-EGFP (NanoSPD prey) (from UniProt P84091 124-435) (domain or fragment)
- binding [10]: no binding
- binding [11]: binds
- binding [12]: no binding
- binding [9]: binds
- binding [13]: no binding

Molecule: μ2 subunit of the AP-2 complex, prey fragment residues 93 to 435 (yeast two-hybrid screen clones) (from UniProt P84091 93-435) (domain or fragment)
- binding [1]: binds

B1: mCherry-SLC26A4-Ct (NanoSPD prey of the reciprocal experiments) (domain or fragment, UniProt Q9R155 512-780)
chain: RVQFPSWNGLGSVPSTDIYKSITHYKNLEEPEGVKILRFSSPIFYGNVDGFKKCINSTVGFDAIRVYNKRLKALRRIQKLIKKGQLRATKNGIISDIGSSNNAFEPDEDVEEPEELNIPTKEIEIQVDWNSELPVKVNVPKVPIHSLVLDCGAVSFLDVVGVRSLRMIVKEFQRIDVNVYFALLQDDVLEKMEQCGFFDDNIRKDRFFLTVHDAILHLQNQVKSREGQDSLLETVARIRDCKDPLDLMEAEMNAEELDVQDEAMRRLAS
- binding [14]: binds
- binding [15]: binds
